Source: the supplement of paper PMC8728848
Some of the results follow.

Key:
Test in all cases: glycan array binding signal (z-score within array); higher = stronger binding
Details in all cases: glycan notation: IUPAC condensed, linker removed
[1] = target: Neu5Ac(a2-6)Gal(b1-4)GlcNAc(b1-2)Man(a1-6)[Man(a1-3)]Man(b1-4)GlcNAc(b1-4)GlcNAc
In short: (§1)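 From the Consortium for Functional Glycomics database, 3228 arrays were curated, keeping only those whose protein sequence was available. Binding is given as a within-array Z-score averaged across arrays sharing a protein sequence and across linkers. Negative Z-scores can be read as non-binding.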

[2] = target: Neu5Ac(a2-6)Gal(b1-4)GlcNAc(b1-3)Gal(b1-3)GlcNAc
In short: as §1

[3] = target: Neu5Ac(a2-6)Gal(b1-4)GlcNAc(b1-3)Gal(b1-4)GlcNAc
In short: as §1

[4] = target: Neu5Ac(a2-6)Gal(b1-4)GlcNAc(b1-3)Gal(b1-4)GlcNAc(b1-3)Gal(b1-4)GlcNAc
In short: as §1

[5] = target: Neu5Ac(a2-6)Gal(b1-4)GlcNAc(b1-3)Gal(b1-4)[Fuc(a1-3)]GlcNAc(b1-3)Gal(b1-4)[Fuc(a1-3)]GlcNAc
In short: as §1

[6] = target: Neu5Ac(a2-6)Gal(b1-4)GlcNAc(b1-3)GalNAc
In short: as §1

[7] = target: Neu5Ac(a2-6)Gal(b1-4)GlcNAc6S
In short: as §1

Neu5Ac(a2-6)GalNAc = target: Neu5Ac(a2-6)GalNAc
In short: as §1

[8] = target: Neu5Ac(a2-6)GalNAc(b1-4)GlcNAc
In short: as §1

[9] = target: Neu5Ac(a2-6)GlcNAc(b1-4)GlcNAc
In short: as §1

[10] = target: Neu5Ac(a2-6)GlcNAc(b1-4)GlcNAc(b1-4)GlcNAc
In short: as §1

Neu5Ac(a2-8)Neu5Ac = target: Neu5Ac(a2-8)Neu5Ac
In short: as §1

[11] = target: Neu5Ac(a2-8)Neu5Ac(a2-3)Gal(b1-4)Glc
In short: as §1

[12] = target: Neu5Ac(a2-8)Neu5Ac(a2-3)[GalNAc(b1-4)]Gal(b1-4)Glc
In short: as §1

[13] = target: Neu5Ac(a2-8)Neu5Ac(a2-8)Neu5Ac
In short: as §1

[14] = target: Neu5Ac(a2-8)Neu5Ac(a2-8)Neu5Ac(a2-3)Gal(b1-4)Glc
In short: as §1

[15] = target: Neu5Ac(a2-8)Neu5Ac(a2-8)Neu5Ac(a2-3)[GalNAc(b1-4)]Gal(b1-4)Glc
In short: as §1

[16] = target: Neu5Ac(a2-8)Neu5Ac(a2-8)Neu5Ac(a2-8)Neu5Ac(a2-3)[GalNAc(b1-4)]Gal(b1-4)Glc
In short: as §1

Neu5Ac(b1-6)GalNAc = target: Neu5Ac(b1-6)GalNAc
In short: as §1

[17] = target: Neu5Ac(b2-6)Gal(b1-4)GlcNAc
In short: as §1

Neu5Ac(b2-6)GalNAc = target: Neu5Ac(b2-6)GalNAc
In short: as §1

[18] = target: Neu5Ac9Ac(a2-3)Gal(b1-3)GlcNAc
In short: as §1

[19] = target: Neu5Ac9Ac(a2-3)Gal(b1-4)GlcNAc
In short: as §1

[20] = target: Neu5Ac9Ac(a2-6)Gal(b1-4)GlcNAc
In short: as §1

[21] = target: Neu5Gc(a2-3)Gal(b1-3)GlcNAc
In short: as §1

[22] = target: Neu5Gc(a2-3)Gal(b1-3)[Fuc(a1-4)]GlcNAc
In short: as §1

Neu5Gc(a2-3)Gal(b1-4)Glc = target: Neu5Gc(a2-3)Gal(b1-4)Glc
In short: as §1

[23] = target: Neu5Gc(a2-3)Gal(b1-4)GlcNAc
In short: as §1

[24] = target: Neu5Gc(a2-3)Gal(b1-4)[Fuc(a1-3)]GlcNAc
In short: as §1

[25] = target: Neu5Gc(a2-6)Gal(b1-4)GlcNAc
In short: as §1

Neu5Gc(a2-6)GalNAc = target: Neu5Gc(a2-6)GalNAc
In short: as §1

[26] = target: Neu5Gc(b2-6)Gal(b1-4)GlcNAc
In short: as §1

B1: MVL (Microcystis viridis), Q9RHG4 (protein)
chain: MASYKVNIPAGPLWSNAEAQQVGPKIAAAHQGNFTGQWTTVVESAMSVVEVELQVENTGIHEFKTDVLAGPLWSNDEAQKLGPQIAASYGAEFTGQWRTIVEGVMSVIQIKYTF
B1 was tested, and the “glycan array binding signal (z-score)” value [1] was 1.19, the “glycan array binding signal (z-score)” value [2] was -0.246 and the “glycan array binding signal (z-score)” value [3] was -0.236. For the same binder, the “glycan array binding signal (z-score)” value [4] was -0.227, the “glycan array binding signal (z-score)” value [5] was -0.201 and the “glycan array binding signal (z-score)” value [6] was -0.223. For the same binder, the “glycan array binding signal (z-score)” value [7] was -0.24, the “glycan array binding signal (z-score)” value (Neu5Ac(a2-6)GalNAc) was -0.241 and the “glycan array binding signal (z-score)” value [8] was -0.241. The “glycan array binding signal (z-score)” value [9] was -0.24, the “glycan array binding signal (z-score)” value [10] was -0.17 and the “glycan array binding signal (z-score)” value (Neu5Ac(a2-8)Neu5Ac) was -0.235. The “glycan array binding signal (z-score)” value [11] was -0.235, the “glycan array binding signal (z-score)” value [12] was -0.235 and the “glycan array binding signal (z-score)” value [13] was -0.242. The “glycan array binding signal (z-score)” value [14] was -0.236, the “glycan array binding signal (z-score)” value [15] was -0.238 and the “glycan array binding signal (z-score)” value [16] was -0.242. For the same binder, the “glycan array binding signal (z-score)” value (Neu5Ac(b1-6)GalNAc) was -0.244, the “glycan array binding signal (z-score)” value [17] was -0.237 and the “glycan array binding signal (z-score)” value (Neu5Ac(b2-6)GalNAc) was -0.242. For the same binder, the “glycan array binding signal (z-score)” value [18] was -0.246, the “glycan array binding signal (z-score)” value [19] was -0.24 and the “glycan array binding signal (z-score)” value [20] was -0.239. The “glycan array binding signal (z-score)” value [21] was -0.24, the “glycan array binding signal (z-score)” value [22] was -0.243 and the “glycan array binding signal (z-score)” value (Neu5Gc(a2-3)Gal(b1-4)Glc) was -0.222. The “glycan array binding signal (z-score)” value [23] was -0.236, the “glycan array binding signal (z-score)” value [24] was -0.234 and the “glycan array binding signal (z-score)” value [25] was -0.236. The “glycan array binding signal (z-score)” value (Neu5Gc(a2-6)GalNAc) was -0.238 and the “glycan array binding signal (z-score)” value [26] was -0.233.
